PubChem BioAssay AID1030 (National Center for Advancing Translational Sciences (NCATS), 2008)
The campaign covered roughly 220,000 compounds. About 16,000 (7.3%) were called active. The inconclusive results got no clear call from the source; some entries with a clear call stand among them for comparison. Calls come from the whole dose curve; as a rule, active = well fitted inhibition curve with a large enough effect (not every such curve was filed as active); inconclusive = small, poorly fitted or top-dose-only effect, or another doubt; inactive = no such curve, though single readings can be large or run the other way. Potencies of inconclusive entries are left out as doubtful fits.

Molecular target: Aldehyde dehydrogenase 1A1 (Homo sapiens) (UniProt P00352)
Test: qHTS Assay for Inhibitors of Aldehyde Dehydrogenase 1 (ALDH1A1);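 for activity, negative = inhibition: plate controls were no enzyme wells and a reference inhibitor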
Conditions: Purified ALDH1A1, NADH fluorescence, propionaldehyde substrate; series mostly up to 75.3 µM
Potency is the fitted concentration of half-maximal effect; tags give direction and shape of the fitted curve.

Sequence of UniProt P00352 (P00352 whole entry, looked up): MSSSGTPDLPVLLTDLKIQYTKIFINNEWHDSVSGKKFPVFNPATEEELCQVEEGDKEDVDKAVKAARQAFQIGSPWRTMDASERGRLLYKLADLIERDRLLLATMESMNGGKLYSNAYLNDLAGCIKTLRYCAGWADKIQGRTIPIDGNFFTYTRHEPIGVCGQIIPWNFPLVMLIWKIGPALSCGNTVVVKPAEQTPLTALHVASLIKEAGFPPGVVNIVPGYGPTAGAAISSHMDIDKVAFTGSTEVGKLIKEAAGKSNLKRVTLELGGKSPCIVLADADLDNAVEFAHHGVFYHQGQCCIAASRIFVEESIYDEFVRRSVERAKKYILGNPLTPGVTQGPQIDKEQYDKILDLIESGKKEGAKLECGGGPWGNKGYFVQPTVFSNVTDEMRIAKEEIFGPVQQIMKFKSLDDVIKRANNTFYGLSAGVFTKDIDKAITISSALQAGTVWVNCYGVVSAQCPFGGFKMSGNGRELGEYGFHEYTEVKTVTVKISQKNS

Row | SMILES | Potency | activity, negative = inhibition
1 | O=C(CSc1nnc([C@@H]2CCCN2)o1)c1ccc(Cl)cc1 | active: 22.4 µM | –
2 | c1ccc(-n2ncc3c(N4CCN(CCOc5cccc6ccccc56)CC4)ncnc32)cc1 | inconclusive [inhibitor, single point] | –
3 | O=C(O)CCCCCCCCCC(=O)c1cccs1 | inactive | –
4 | Cc1ccsc1C1Nc2ccc3ncccc3c2C2=C1C(=O)CC(C)(C)C2 (centres undefined) | inconclusive [inhibitor, partial curve] | –
5 | CCCNCc1cc(OCC)c(OCC(=O)Nc2ccccc2)cc1Br | inactive | –
6 | COC(=O)c1scc(C)c1NC(=O)C1CCCCC1 | inactive | –
7 | Cc1ccc(C(=O)Nc2ccccc2C(=O)O)cc1NC(=O)COc1c(C)cccc1C | active: 8.91 µM | –
8 | COc1cccc(/C=C2/SC(=S)N(CC(=O)Nc3nnc(C)s3)C2=O)c1 | inactive | –
9 | O=C(Nc1cccc(S(=O)(=O)NCc2ccco2)c1)c1cc(-c2ccccc2)nc2ccccc12 | inconclusive [inhibitor, partial curve] | –
10 | CCOCCCNS(=O)(=O)c1ccc(NC(=O)Cc2c(F)cccc2Cl)cc1 | inconclusive [inhibitor, single point] | –
11 | Cc1cc(C)n2nc(C(=O)Nc3ccc4c(c3)OCO4)nc2n1 | inconclusive [inhibitor, partial curve, poor fit] | –
12 | O=C(N/N=C\C=C\c1ccc2c(c1)OCO2)C1COc2cc3ccccc3cc2O1 (centres undefined) | inconclusive [inhibitor, single point] | –
13 | COC(=O)C1CSC(C(=O)OC)N1C(=O)CN1CCN(c2ccccc2)CC1 (centres undefined) | inactive | –
14 | Cc1ccc(C)c(CN2CCCNC2=O)c1 | inconclusive [inhibitor, partial curve] | –
15 | CC(C(=O)Nc1ccc(N2CCOCC2)cc1)N1C(=O)c2ccccc2C1=O (centres undefined) | inconclusive [inhibitor, single point] | –
16 | COc1cc(C(=O)N2CCCC(c3nc(-c4cccs4)no3)C2)cc(OC)c1OC (centres undefined) | inconclusive [inhibitor, partial curve] | –
17 | NC(=O)C1=C[C@H](C2CCCCC2)C[C@H](OCc2ccc(CO)cc2)O1 | inconclusive [inhibitor, single point] | –
18 | O=C(CSCC(=O)N1CCOCC1)Nc1ccccc1 | inconclusive [inhibitor, single point] | –
19 | Cc1ccc2nc3c(cc(C#N)c(=O)n3-c3nccs3)c(=O)n2c1 | inconclusive [inhibitor, partial curve] | –
20 | COc1ccc(OCCCn2c(=O)oc3ccccc32)cc1 | inconclusive [inhibitor, single point] | –
21 | COc1ccc2[nH]c(=O)c(CN(CCCN(C)C)C(=O)Nc3ccc(F)cc3)cc2c1 | inconclusive [inhibitor, single point] | –
22 | Cc1ccccc1NC(=S)N(Cc1ccccn1)Cc1ccccc1Cl | inconclusive [inhibitor, single point] | –

Row | SMILES | Potency | activity, negative = inhibition
23 | CN(C)/C=C1\C(=O)NN=C1c1ccccc1 | inconclusive [inhibitor, single point] | –
24 | COc1ccccc1NC(=O)Nc1nc(C(C)(C)C)cs1 | inactive | –
25 | Cc1cc2ccc(OC(=O)c3ccc(N=C(N)N)cc3)cc2oc1=O | inconclusive [inhibitor, single point] | –
26 | Cc1cccc(NC(=S)N(CCN(C)C)C(C)c2ccccn2)c1 (centres undefined) | inactive | –
27 | CN1C(=O)NC(c2ccccc2)C2=C1CN(c1ccc3ccccc3c1)C2=O (centres undefined) | inconclusive [inhibitor, partial curve] | –
28 | COc1ccc(C(=O)CN2CC(C)SC2=Nc2ccc(Cl)cc2)cc1 (centres undefined) | inconclusive [inhibitor, single point] | –
29 | COc1ccccc1OCc1ccc(C(=O)n2nc(C)c(Cl)c2C)o1 | inactive | –
30 | Oc1c(C=Nc2ccccc2)sc2ccccc12 | inconclusive [inhibitor, partial curve] | –
31 | C/C(NCc1cccnc1)=C(\C#N)C(=O)NCc1ccccc1 | inconclusive [inhibitor, single point] | –
32 | CC[C@H](CN(C)C)C(=O)c1ccco1 | – | inactive: -3.39% [at 13.5 µM]
33 | O=[N+]([O-])c1cccc(-c2csc(CS(=O)(=O)Cc3ccco3)n2)c1 | inconclusive [inhibitor, single point] | –
34 | CCCCC(=O)Nc1nn(CCC)c2nc3ccccc3cc12 | inconclusive [inhibitor, partial curve] | –
35 | O=C(CCC1N=C2c3ccccc3N=C(SCc3ccc(F)cc3)N2C1=O)NCc1ccco1 (centres undefined) | inconclusive [inhibitor, partial curve] | –
36 | CN(C)c1ccc(/C=N\Nc2nc(-c3ccccc3)cc(=O)[nH]2)cc1 | inconclusive [inhibitor, single point] | –
37 | COc1ccc(C)cc1NC(=O)C(=O)NCc1ccncc1 | active: 17.8 µM | –
38 | CC(C)CN1C(=O)c2ccc(C(=O)Nc3c[nH]c(=O)[nH]c3=O)cc2C1=O | inconclusive [inhibitor, full curve] | –
39 | N#Cc1ccc(-c2ccc(F)cc2)nc1Oc1ccc(Cl)c(Cl)c1 | inconclusive [inhibitor, partial curve] | –
40 | CN(CC(=O)N1CCN(c2ccccn2)CC1)S(=O)(=O)c1ccc2ccccc2c1 | inconclusive [inhibitor, single point] | –
41 | COC(=O)c1ccc(OCC(=O)Nc2nn(-c3ccccc3)nc2C(N)=O)cc1 | inconclusive [inhibitor, partial curve] | –
42 | O=C(c1ccco1)N1CCC2(CCCN(c3ccccn3)C2)CC1 | inconclusive [inhibitor, single point] | –
43 | O=c1[nH]c(CSc2nc3ccccc3[nH]2)nc2c1cnn2-c1ccccc1 | inactive | –
44 | COC(=O)c1c(/N=C/NOCc2ccc(Cl)cc2)sc2c1CCN(c1ncc(C(F)(F)F)cc1Cl)C2 | inconclusive [inhibitor, single point] | –
